The list shows a part of the results.
Columns and labels:
Experiment in all cases: glycan array binding signal (z-score within array); higher = stronger binding
Conditions in all cases: glycan notation: IUPAC condensed, linker removed
[1] = target: Neu5Ac(a2-6)Gal(b1-4)GlcNAc(b1-2)Man
How it was run: (§1)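 Arrays were curated from the Consortium for Functional Glycomics database, 3228 in total, and kept only where the protein sequence was available. Binding is expressed as a within-array Z-score. This score was averaged across arrays of the same protein sequence at different concentrations or buffers and across linkers, and negative values can be read as non-binding.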

[2] = target: Neu5Ac(a2-6)Gal(b1-4)GlcNAc(b1-2)Man(a1-3)Man(b1-4)GlcNAc(b1-4)GlcNAc
How it was run: as §1

[3] = target: Neu5Ac(a2-6)Gal(b1-4)GlcNAc(b1-2)Man(a1-3)[Gal(b1-4)GlcNAc(b1-2)Man(a1-6)]Man(b1-4)GlcNAc(b1-4)GlcNAc
How it was run: as §1

[4] = target: Neu5Ac(a2-6)Gal(b1-4)GlcNAc(b1-2)Man(a1-3)[GlcNAc(b1-2)Man(a1-6)]Man(b1-4)GlcNAc(b1-4)GlcNAc
How it was run: as §1

[5] = target: Neu5Ac(a2-6)Gal(b1-4)GlcNAc(b1-2)Man(a1-3)[GlcNAc(b1-4)][Neu5Ac(a2-6)Gal(b1-4)GlcNAc(b1-2)Man(a1-6)]Man(b1-4)GlcNAc(b1-4)GlcNAc
How it was run: as §1

[6] = target: Neu5Ac(a2-6)Gal(b1-4)GlcNAc(b1-2)Man(a1-3)[Man(a1-6)]Man(b1-4)GlcNAc(b1-4)GlcNAc
How it was run: as §1

[7] = target: Neu5Ac(a2-6)Gal(b1-4)GlcNAc(b1-2)Man(a1-3)[Neu5Ac(a2-3)Gal(b1-4)GlcNAc(b1-2)Man(a1-6)]Man(b1-4)GlcNAc(b1-4)GlcNAc
How it was run: as §1

[8] = target: Neu5Ac(a2-6)Gal(b1-4)GlcNAc(b1-2)Man(a1-3)[Neu5Ac(a2-6)Gal(b1-4)GlcNAc(b1-2)Man(a1-6)]Man(b1-4)GlcNAc(b1-4)GlcNAc
How it was run: as §1

[9] = target: Neu5Ac(a2-6)Gal(b1-4)GlcNAc(b1-2)Man(a1-3)[Neu5Ac(a2-6)Gal(b1-4)GlcNAc(b1-2)Man(a1-6)]Man(b1-4)GlcNAc(b1-4)[Fuc(a1-6)]GlcNAc
How it was run: as §1

[10] = target: Neu5Ac(a2-6)Gal(b1-4)GlcNAc(b1-2)Man(a1-6)Man(b1-4)GlcNAc(b1-4)GlcNAc
How it was run: as §1

[11] = target: Neu5Ac(a2-6)Gal(b1-4)GlcNAc(b1-2)Man(a1-6)[Gal(b1-4)GlcNAc(b1-2)Man(a1-3)]Man(b1-4)GlcNAc(b1-4)GlcNAc
How it was run: as §1

[12] = target: Neu5Ac(a2-6)Gal(b1-4)GlcNAc(b1-2)Man(a1-6)[GlcNAc(b1-2)Man(a1-3)]Man(b1-4)GlcNAc(b1-4)GlcNAc
How it was run: as §1

[13] = target: Neu5Ac(a2-6)Gal(b1-4)GlcNAc(b1-2)Man(a1-6)[Man(a1-3)]Man(b1-4)GlcNAc(b1-4)GlcNAc
How it was run: as §1

[14] = target: Neu5Ac(a2-6)Gal(b1-4)GlcNAc(b1-2)[Neu5Ac(a2-6)Gal(b1-4)GlcNAc(b1-4)]Man(a1-3)[GlcNAc(b1-4)][Neu5Ac(a2-6)Gal(b1-4)GlcNAc(b1-2)[Neu5Ac(a2-6)Gal(b1-4)GlcNAc(b1-6)]Man(a1-6)]Man(b1-4)GlcNAc(b1-4)GlcNAc
How it was run: as §1

[15] = target: Neu5Ac(a2-6)Gal(b1-4)GlcNAc(b1-2)[Neu5Ac(a2-6)Gal(b1-4)GlcNAc(b1-4)]Man(a1-3)[GlcNAc(b1-4)][Neu5Ac(a2-6)Gal(b1-4)GlcNAc(b1-4)Man(a1-6)]Man(b1-4)GlcNAc(b1-4)GlcNAc
How it was run: as §1

[16] = target: Neu5Ac(a2-6)Gal(b1-4)GlcNAc(b1-2)[Neu5Ac(a2-6)Gal(b1-4)GlcNAc(b1-6)]Man(a1-6)[Neu5Ac(a2-6)Gal(b1-4)GlcNAc(b1-2)Man(a1-3)][GlcNAc(b1-4)]Man(b1-4)GlcNAc(b1-4)GlcNAc
How it was run: as §1

[17] = target: Neu5Ac(a2-6)Gal(b1-4)GlcNAc(b1-3)Gal(b1-3)GlcNAc
How it was run: as §1

[18] = target: Neu5Ac(a2-6)Gal(b1-4)GlcNAc(b1-3)Gal(b1-4)GlcNAc
How it was run: as §1

[19] = target: Neu5Ac(a2-6)Gal(b1-4)GlcNAc(b1-3)Gal(b1-4)GlcNAc(b1-2)Man(a1-3)[Neu5Ac(a2-6)Gal(b1-4)GlcNAc(b1-3)Gal(b1-4)GlcNAc(b1-2)Man(a1-6)]GalNAc
How it was run: as §1

[20] = target: Neu5Ac(a2-6)Gal(b1-4)GlcNAc(b1-3)Gal(b1-4)GlcNAc(b1-3)Gal(b1-4)GlcNAc
How it was run: as §1

[21] = target: Neu5Ac(a2-6)Gal(b1-4)GlcNAc(b1-3)Gal(b1-4)GlcNAc(b1-3)Gal(b1-4)GlcNAc(b1-2)Man(a1-3)[Neu5Ac(a2-6)Gal(b1-4)GlcNAc(b1-3)Gal(b1-4)GlcNAc(b1-3)Gal(b1-4)GlcNAc(b1-2)Man(a1-6)]GalNAc
How it was run: as §1

[22] = target: Neu5Ac(a2-6)Gal(b1-4)GlcNAc(b1-3)Gal(b1-4)GlcNAc(b1-3)GalNAc
How it was run: as §1

[23] = target: Neu5Ac(a2-6)Gal(b1-4)GlcNAc(b1-3)Gal(b1-4)GlcNAc(b1-3)[Neu5Ac(a2-6)Gal(b1-4)GlcNAc(b1-3)Gal(b1-4)GlcNAc(b1-6)]GalNAc
How it was run: as §1

[24] = target: Neu5Ac(a2-6)Gal(b1-4)GlcNAc(b1-3)Gal(b1-4)GlcNAc(b1-6)[Gal(b1-3)]GalNAc
How it was run: as §1

[25] = target: Neu5Ac(a2-6)Gal(b1-4)GlcNAc(b1-3)Gal(b1-4)[Fuc(a1-3)]GlcNAc(b1-3)Gal(b1-4)[Fuc(a1-3)]GlcNAc
How it was run: as §1

[26] = target: Neu5Ac(a2-6)Gal(b1-4)GlcNAc(b1-3)GalNAc
How it was run: as §1

[27] = target: Neu5Ac(a2-6)Gal(b1-4)GlcNAc(b1-3)[Neu5Ac(a2-6)Gal(b1-4)GlcNAc(b1-6)]GalNAc
How it was run: as §1

[28] = target: Neu5Ac(a2-6)Gal(b1-4)GlcNAc(b1-6)GalNAc
How it was run: as §1

[29] = target: Neu5Ac(a2-6)Gal(b1-4)GlcNAc(b1-6)[Gal(b1-3)GlcNAc(b1-3)]Gal(b1-4)Glc
How it was run: as §1

[30] = target: Neu5Ac(a2-6)Gal(b1-4)GlcNAc(b1-6)[Gal(b1-3)]GalNAc
How it was run: as §1

[31] = target: Neu5Ac(a2-6)Gal(b1-4)GlcNAc6S
How it was run: as §1

Neu5Ac(a2-6)GalNAc = target: Neu5Ac(a2-6)GalNAc
How it was run: as §1

[32] = target: Neu5Ac(a2-6)GalNAc(b1-4)GlcNAc
How it was run: as §1

[33] = target: Neu5Ac(a2-6)GalNAc(b1-4)GlcNAc6S
How it was run: as §1

B1: UEA-I (Ulex europaeus), P22972 (protein)
chain: SDDLSFKFKNFSQNGKDLSFQGDASVIETGVLQLNKVGNNLPDETGGIARYIAPIHIWNCNTGEVASFITSFSFFMETSANPKAATDGLTFFLAPPDSPLRRAGGYFGLFEDTKDNDSSYQTVAVEFDTIGSPVNFDDPGFPHIGIDVNRVKSINAERWNKRYGLNNVANVEIIYEASSKTLTASLTYPSDQTSISVTSIVDLKEILPEWVSVGFSGGTYIGRQATHEVLNWYFTSNLINTNS
glycan array binding signal (z-score) [1]: -0.112
glycan array binding signal (z-score) [2]: -0.227
glycan array binding signal (z-score) [3]: -0.197
glycan array binding signal (z-score) [4]: -0.21
glycan array binding signal (z-score) [5]: -0.293
glycan array binding signal (z-score) [6]: -0.216
glycan array binding signal (z-score) [7]: -0.179
glycan array binding signal (z-score) [8]: -0.19
glycan array binding signal (z-score) [9]: -0.167
glycan array binding signal (z-score) [10]: -0.155
glycan array binding signal (z-score) [11]: -0.202
glycan array binding signal (z-score) [12]: -0.19
glycan array binding signal (z-score) [13]: -0.205
glycan array binding signal (z-score) [14]: -0.211
glycan array binding signal (z-score) [15]: -0.236
glycan array binding signal (z-score) [16]: -0.263
glycan array binding signal (z-score) [17]: -0.212
glycan array binding signal (z-score) [18]: -0.229
glycan array binding signal (z-score) [19]: -0.1
glycan array binding signal (z-score) [20]: -0.199
glycan array binding signal (z-score) [21]: 0.121
glycan array binding signal (z-score) [22]: -0.253
glycan array binding signal (z-score) [23]: 1.03
glycan array binding signal (z-score) [24]: -0.032
glycan array binding signal (z-score) [25]: -0.17
glycan array binding signal (z-score) [26]: -0.148
glycan array binding signal (z-score) [27]: -0.028
glycan array binding signal (z-score) [28]: -0.14
glycan array binding signal (z-score) [29]: -0.203
glycan array binding signal (z-score) [30]: -0.185
glycan array binding signal (z-score) [31]: -0.211
glycan array binding signal (z-score) (Neu5Ac(a2-6)GalNAc): -0.221
glycan array binding signal (z-score) [32]: -0.152
glycan array binding signal (z-score) [33]: -0.273

Reference: the supplement of paper PMC8728848
